Laboratory results published in US20250295737A1 (AstraZeneca / MedImmune, published 2025).
Read-outs that look alike come from different tables or passages of the source.

What was measured:
Test in all cases: cell-based or functional assay
[1] = target: T1, mouse RXFP1 (mouse, UniProt Q6R6I7 1-758)
T1 sequence (looked up): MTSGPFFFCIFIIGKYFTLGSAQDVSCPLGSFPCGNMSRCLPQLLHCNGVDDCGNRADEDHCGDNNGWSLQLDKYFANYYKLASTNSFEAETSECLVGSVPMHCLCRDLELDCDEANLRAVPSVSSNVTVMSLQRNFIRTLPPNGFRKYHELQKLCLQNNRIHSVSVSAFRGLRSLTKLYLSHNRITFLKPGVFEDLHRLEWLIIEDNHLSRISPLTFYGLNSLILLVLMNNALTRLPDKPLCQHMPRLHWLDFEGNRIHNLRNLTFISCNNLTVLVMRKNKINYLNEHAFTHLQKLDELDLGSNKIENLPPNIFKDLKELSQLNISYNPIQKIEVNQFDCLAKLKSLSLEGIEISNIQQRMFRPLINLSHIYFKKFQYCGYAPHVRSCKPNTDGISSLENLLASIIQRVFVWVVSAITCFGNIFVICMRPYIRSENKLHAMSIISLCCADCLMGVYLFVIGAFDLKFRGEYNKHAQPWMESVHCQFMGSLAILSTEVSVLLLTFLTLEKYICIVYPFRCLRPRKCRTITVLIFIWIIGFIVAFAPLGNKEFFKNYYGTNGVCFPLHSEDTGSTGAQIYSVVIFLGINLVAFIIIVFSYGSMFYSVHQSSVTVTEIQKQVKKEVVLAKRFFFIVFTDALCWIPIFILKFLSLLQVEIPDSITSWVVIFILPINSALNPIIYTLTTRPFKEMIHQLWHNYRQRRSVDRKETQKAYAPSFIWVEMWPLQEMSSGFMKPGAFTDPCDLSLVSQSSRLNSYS

[2] = target: T2, human RXFP2 (human, UniProt Q8WXD0 1-754)
T2 sequence (looked up): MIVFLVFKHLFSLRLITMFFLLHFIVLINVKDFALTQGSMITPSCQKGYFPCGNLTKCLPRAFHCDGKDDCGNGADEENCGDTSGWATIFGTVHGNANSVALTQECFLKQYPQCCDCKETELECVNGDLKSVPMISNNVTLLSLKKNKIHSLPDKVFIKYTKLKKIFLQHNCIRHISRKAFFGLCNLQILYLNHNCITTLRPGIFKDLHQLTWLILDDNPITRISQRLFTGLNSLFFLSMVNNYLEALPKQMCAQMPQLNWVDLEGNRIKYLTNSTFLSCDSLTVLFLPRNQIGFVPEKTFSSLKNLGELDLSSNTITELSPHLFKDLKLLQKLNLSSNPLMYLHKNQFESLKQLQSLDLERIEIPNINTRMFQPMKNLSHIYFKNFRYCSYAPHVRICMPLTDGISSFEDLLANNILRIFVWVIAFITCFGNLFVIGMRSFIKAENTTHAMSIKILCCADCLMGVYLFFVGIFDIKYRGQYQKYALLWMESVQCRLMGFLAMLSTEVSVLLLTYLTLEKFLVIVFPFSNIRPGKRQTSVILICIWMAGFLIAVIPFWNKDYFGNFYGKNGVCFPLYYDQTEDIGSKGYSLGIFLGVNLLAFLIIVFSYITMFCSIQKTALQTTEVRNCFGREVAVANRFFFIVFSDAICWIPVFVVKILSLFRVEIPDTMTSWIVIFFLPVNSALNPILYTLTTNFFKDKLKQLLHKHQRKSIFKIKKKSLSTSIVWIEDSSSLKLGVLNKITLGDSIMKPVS

[3] = target: T3, human RXFP1 (human, UniProt Q9HBX9 1-757)
T3 sequence (looked up): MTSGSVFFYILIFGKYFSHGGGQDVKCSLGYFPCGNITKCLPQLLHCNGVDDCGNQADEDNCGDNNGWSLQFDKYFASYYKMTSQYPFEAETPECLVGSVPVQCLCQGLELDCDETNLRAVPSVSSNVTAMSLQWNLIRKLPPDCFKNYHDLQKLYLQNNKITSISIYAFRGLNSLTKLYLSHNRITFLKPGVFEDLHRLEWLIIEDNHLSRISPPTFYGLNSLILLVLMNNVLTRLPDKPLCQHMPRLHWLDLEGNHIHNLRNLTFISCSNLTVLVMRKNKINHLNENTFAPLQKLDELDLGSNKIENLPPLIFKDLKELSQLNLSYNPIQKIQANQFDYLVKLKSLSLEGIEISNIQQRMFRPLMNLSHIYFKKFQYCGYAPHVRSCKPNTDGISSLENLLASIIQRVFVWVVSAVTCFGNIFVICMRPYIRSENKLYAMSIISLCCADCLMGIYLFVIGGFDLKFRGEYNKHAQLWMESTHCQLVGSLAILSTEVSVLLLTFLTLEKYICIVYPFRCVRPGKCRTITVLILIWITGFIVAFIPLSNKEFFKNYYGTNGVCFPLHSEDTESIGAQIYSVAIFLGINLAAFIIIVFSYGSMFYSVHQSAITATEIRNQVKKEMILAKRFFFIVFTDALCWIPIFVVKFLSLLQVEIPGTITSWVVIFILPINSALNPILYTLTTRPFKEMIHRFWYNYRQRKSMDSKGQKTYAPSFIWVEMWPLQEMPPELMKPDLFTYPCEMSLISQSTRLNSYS

[4] = target: T1, mouse RXFP1; remark: listed apart in the source
[5] = target: T2, human RXFP2; remark: listed apart in the source
[6] = target: T3, human RXFP1; remark: listed apart in the source

- EC50 mRXFP1 (M), cAMP HTRF assay [1]: 7.64e-12 M
- EC50 hRXFP2 (M), cAMP HTRF assay [2]: 2.88e-07 M
- EC50 hRXFP1 (M), cAMP HTRF assay [3]: 8.3e-12 M
- EC50 mRXFP1 (M), cAMP HTRF assay [4]: 7.64e-12 M
- EC50 hRXFP2 (M), cAMP HTRF assay [5]: 2.88e-07 M
- EC50 hRXFP1 (M), cAMP HTRF assay [6]: 8.3e-12 M
B1: RELAX0010 (Fc fusion)
chain: [human IgG1 Fc not given here]GGGGSGGGGSGGGGSQLYSALANKCCHVGCTKRSLARFCGGGGSGGGGSGGGGSSWMEEVIKLCGRELVRAQIAICGMSTWS
